Results reported in the supplement of paper PMC9990464.
Structures can show the parent of a compound that is named as a salt. Some of the results follow. Single values are uncertain, as repeats are few or missing.

Test system: SKNBE
Test: area under viability curve (10 nM-1 µM), viability relative to solvent or trametinib-only control (AUC (arbitrary, % viability x concentration range)); higher = less growth inhibition (more viable cells)
Conditions: 72 h compound exposure (96 h after seeding) h; trametinib co-treatment 0 µM
Experimental: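 Four neuroblastoma cell lines (KCNR, SKNBE, SJNB8, SKNAS) were seeded in 384-well plates. At 24 h, 1 µM trametinib or DMSO was added, followed by library compounds at 10 nM, 100 nM and 1 µM. Viability was read by MTT at 96 h and normalised to solvent-treated cells (DMSO arm) or to trametinib-only cells (trametinib arm). The area under the 3-point viability curve was computed in GraphPad Prism; units are as given (approx. 100000 = no effect).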
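Further: KCNR is a neuroblastoma cell line carrying an ALK mutation, in this DMSO arm without trametinib, viability was normalised to solvent-treated cells.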

| SMILES | area under viability curve |
| --- | --- |
| CC(=O)Oc1ccc(/C=C/c2cc(OC(C)=O)cc(OC(C)=O)c2)cc1 [Triacetylresveratrol] | 93900 |
| N.N.[Cl][Pt][Cl] [Cisplatin] | 112000 |
| N[C@@H](Cc1ccc(N(CCCl)CCCl)cc1)C(=O)O [Melphalan] | 118000 |
| CC[C@H](Nc1nc(NCc2cnc(C)cc2C)c2ncn(C(C)C)c2n1)[C@@H](C)O [Fadraciclib] | 89000 |
| Cc1ncc(CNC(=O)N(CCCl)N=O)c(N)n1 [Nimustine HCl] | 125000 |
| C[C@]12CC[C@@H]3c4ccc(OC(=O)N(CCCl)CCCl)cc4CC[C@H]3[C@@H]1CC[C@@H]2OP(=O)(O)O [Estramustine phosphate sodium] | 82300 |
| C=C1C[C@@H]2[C@H](CC[C@]3(C)C(=O)CC[C@@H]23)[C@@]2(C)C=CC(=O)C=C12 [Exemestane] | 106000 |
| O=C(O)c1nn(Cc2ccc(Cl)cc2Cl)c2ccccc12 [Lonidamine] | 108000 |
| C[C@]12CCC(=O)C(O)=C1CC[C@@H]1[C@@H]2CC[C@]2(C)C(=O)CC[C@@H]12 [Formestane] | 96100 |
| CC[C@@]1([C@H]2O[C@H]([C@H]3O[C@@](O)(CO)[C@H](C)C[C@@H]3C)C[C@H]2C)CC[C@H]([C@@]2(C)CC[C@]3(C[C@H](O)[C@@H](C)[C@@H]([C@H](C)[C@H](OC)[C@@H](C)C(=O)O)O3)O2)O1 [Monensin sodium] | 35400 |
| CCC(=O)CCCCC[C@@H]1NC(=O)[C@H]2CCCCN2C(=O)[C@H]([C@@H](C)CC)NC(=O)[C@H](Cc2cn(OC)c3ccccc23)NC1=O [Apicidin] | 75800 |
| N[C@@H]1C[C@H]1c1ccccc1.N[C@H]1C[C@@H]1c1ccccc1 [Tranylcypromine hemisulfate] | 108000 |

Same assay, conditions: 72 h compound exposure (96 h after seeding) h; trametinib co-treatment 1 µM

| SMILES | area under viability curve |
| --- | --- |
| CC(=O)Oc1ccc(/C=C/c2cc(OC(C)=O)cc(OC(C)=O)c2)cc1 [Triacetylresveratrol] | 112000 |
| N.N.[Cl][Pt][Cl] [Cisplatin] | 105000 |
| N[C@@H](Cc1ccc(N(CCCl)CCCl)cc1)C(=O)O [Melphalan] | 107000 |
| CC[C@H](Nc1nc(NCc2cnc(C)cc2C)c2ncn(C(C)C)c2n1)[C@@H](C)O [Fadraciclib] | 72200 |
| Cc1ncc(CNC(=O)N(CCCl)N=O)c(N)n1 [Nimustine HCl] | 110000 |
| C[C@]12CC[C@@H]3c4ccc(OC(=O)N(CCCl)CCCl)cc4CC[C@H]3[C@@H]1CC[C@@H]2OP(=O)(O)O [Estramustine phosphate sodium] | 84200 |
| C=C1C[C@@H]2[C@H](CC[C@]3(C)C(=O)CC[C@@H]23)[C@@]2(C)C=CC(=O)C=C12 [Exemestane] | 95900 |
| O=C(O)c1nn(Cc2ccc(Cl)cc2Cl)c2ccccc12 [Lonidamine] | 95500 |
| C[C@]12CCC(=O)C(O)=C1CC[C@@H]1[C@@H]2CC[C@]2(C)C(=O)CC[C@@H]12 [Formestane] | 104000 |
| CC[C@@]1([C@H]2O[C@H]([C@H]3O[C@@](O)(CO)[C@H](C)C[C@@H]3C)C[C@H]2C)CC[C@H]([C@@]2(C)CC[C@]3(C[C@H](O)[C@@H](C)[C@@H]([C@H](C)[C@H](OC)[C@@H](C)C(=O)O)O3)O2)O1 [Monensin sodium] | 18800 |
| CCC(=O)CCCCC[C@@H]1NC(=O)[C@H]2CCCCN2C(=O)[C@H]([C@@H](C)CC)NC(=O)[C@H](Cc2cn(OC)c3ccccc23)NC1=O [Apicidin] | 49200 |
| N[C@@H]1C[C@H]1c1ccccc1.N[C@H]1C[C@@H]1c1ccccc1 [Tranylcypromine hemisulfate] | 105000 |
